# Test results reported in the supplement of paper PMC8728848.
# This is one part of the list.
# B1: Cohesin-hLangerin (Homo sapiens) (protein)
# chain: LDDLDAVRIKVDTVNAKPGDTVRIPVRFSGIPSKGIANCDFVYSYDPNVLEIIEIEPGDIIVDPNPDKSFDTAVYPDRKIIVFLFAEDSGTGAYAITKDGVFATIVAKVKEGAPNGLSVIKFVEVGGFANNDLVEQKTQFFDGGANVGDTTEPATPTTPVTTPTTTDDLDAASYPRFMGTISDVKTNVQLLKGRVDNISTLDSEIKKNSDGMEAAGVQIQMVNESLGYVRSQFLKLKTSVEKANAQIQILTRSWEEVSTLNAQIPELKSDLEKASALNTKIRALQGSLENMSKLLKRQNDILQVVSQGWKYFKGNFYYFSLIPKTWYSAEQFCVSRNSHLTSVTSESEQEFLYKTAGGLIYWIGLTKAGMEGDWSWVDDTPFNKVQSARFWIPGEPNNAGNNEHCGNIKAPSLQAWNDAPCDKTFLFICKRPYVPSEPHHHHHH
# Experiments:
# Experiment in all cases: glycan array binding signal (z-score within array); higher = stronger binding
# Details in all cases: glycan notation: IUPAC condensed, linker removed
# Kdn(a2-3)Gal(b1-4)Glc = molecular target: Kdn(a2-3)Gal(b1-4)Glc
# Method in brief: (§1)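 Glycan array data were curated from 3228 arrays in the Consortium for Functional Glycomics database and kept only where the protein sequence was available. Glycan names were converted to IUPAC-condensed notation, and columns mapping to the same glycan were averaged. The binding signal is a within-array Z-score, averaged across arrays of the same protein sequence at different concentrations or buffers and across linkers. Negative Z-scores can be read as non-binding.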
# Kdn(a2-3)Gal(b1-4)GlcNAc = molecular target: Kdn(a2-3)Gal(b1-4)GlcNAc
# Method in brief: as §1
# [1] = molecular target: Kdn(a2-3)Gal(b1-4)[Fuc(a1-3)]GlcNAc
# Method in brief: as §1
# Kdn(a2-6)Gal(b1-4)GlcNAc = molecular target: Kdn(a2-6)Gal(b1-4)GlcNAc
# Method in brief: as §1
# [2] = molecular target: Man(a1-2)Man(a1-2)Man(a1-3)Man
# Method in brief: as §1
# [3] = molecular target: Man(a1-2)Man(a1-2)Man(a1-6)[Man(a1-3)]Man
# Method in brief: as §1
# Man(a1-2)Man(a1-3)Man = molecular target: Man(a1-2)Man(a1-3)Man
# Method in brief: as §1
# [4] = molecular target: Man(a1-2)Man(a1-3)[Man(a1-2)Man(a1-6)]Man
# Method in brief: as §1
# [5] = molecular target: Man(a1-2)Man(a1-3)[Man(a1-2)Man(a1-6)]Man(a1-6)[Man(a1-2)Man(a1-2)Man(a1-3)]Man
# Method in brief: as §1
# [6] = molecular target: Man(a1-2)Man(a1-3)[Man(a1-2)Man(a1-6)]Man(a1-6)[Man(a1-2)Man(a1-2)Man(a1-3)]Man(b1-4)GlcNAc(b1-4)GlcNAc
# Method in brief: as §1
# [7] = molecular target: Man(a1-2)Man(a1-3)[Man(a1-6)]Man(a1-6)[Man(a1-2)Man(a1-3)]Man(b1-4)GlcNAc(b1-4)GlcNAc
# Method in brief: as §1
# [8] = molecular target: Man(a1-2)Man(a1-6)[Man(a1-3)]Man(a1-6)[Man(a1-2)Man(a1-2)Man(a1-3)]Man
# Method in brief: as §1
# [9] = molecular target: Man(a1-2)Man(a1-6)[Man(a1-3)]Man(a1-6)[Man(a1-2)Man(a1-2)Man(a1-3)]Man(b1-4)GlcNAc(b1-4)GlcNAc
# Method in brief: as §1
# Man(a1-3)[Man(a1-6)]Man = molecular target: Man(a1-3)[Man(a1-6)]Man
# Method in brief: as §1
# [10] = molecular target: Man(a1-3)[Man(a1-6)]Man(a1-6)[Man(a1-2)Man(a1-3)]Man(b1-4)GlcNAc(b1-4)GlcNAc
# Method in brief: as §1
# [11] = molecular target: Man(a1-3)[Man(a1-6)]Man(a1-6)[Man(a1-3)]Man
# Method in brief: as §1
# [12] = molecular target: Man(a1-3)[Man(a1-6)]Man(a1-6)[Man(a1-3)]Man(b1-4)GlcNAc(b1-4)GlcNAc
# Method in brief: as §1
# [13] = molecular target: Man(a1-3)[Man(a1-6)]Man(b1-4)GlcNAc(b1-4)GlcNAc
# Method in brief: as §1
# [14] = molecular target: Man(a1-3)[Man(a1-6)]Man(b1-4)GlcNAc(b1-4)[Fuc(a1-6)]GlcNAc
# Method in brief: as §1
# Man(a1-6)Man = molecular target: Man(a1-6)Man
# Method in brief: as §1
# Man(b1-4)GlcNAc = molecular target: Man(b1-4)GlcNAc
# Method in brief: as §1
# MurNAc(b1-4)GlcNAc = molecular target: MurNAc(b1-4)GlcNAc
# Method in brief: as §1
# Neu5Ac(a2-3)Gal = molecular target: Neu5Ac(a2-3)Gal
# Method in brief: as §1
# [15] = molecular target: Neu5Ac(a2-3)Gal(b1-3)GalNAc
# Method in brief: as §1
# [16] = molecular target: Neu5Ac(a2-3)Gal(b1-3)GalNAc(b1-3)Gal(a1-4)Gal(b1-4)Glc
# Method in brief: as §1
# [17] = molecular target: Neu5Ac(a2-3)Gal(b1-3)GalNAc(b1-4)[Neu5Ac(a2-3)]Gal(b1-4)Glc
# Method in brief: as §1
# [18] = molecular target: Neu5Ac(a2-3)Gal(b1-3)GalNAc(b1-4)[Neu5Ac(a2-8)Neu5Ac(a2-3)]Gal(b1-4)Glc
# Method in brief: as §1
# [19] = molecular target: Neu5Ac(a2-3)Gal(b1-3)GalNAc6S
# Method in brief: as §1
# [20] = molecular target: Neu5Ac(a2-3)Gal(b1-3)GlcNAc
# Method in brief: as §1
# [21] = molecular target: Neu5Ac(a2-3)Gal(b1-3)GlcNAc(b1-2)Man
# Method in brief: as §1
# [22] = molecular target: Neu5Ac(a2-3)Gal(b1-3)GlcNAc(b1-2)Man(a1-3)[GlcNAc(b1-4)][Neu5Ac(a2-3)Gal(b1-3)GlcNAc(b1-2)Man(a1-6)]Man(b1-4)GlcNAc(b1-4)GlcNAc
# Method in brief: as §1
# [23] = molecular target: Neu5Ac(a2-3)Gal(b1-3)GlcNAc(b1-2)Man(a1-3)[Neu5Ac(a2-3)Gal(b1-3)GlcNAc(b1-2)Man(a1-6)]Man(b1-4)GlcNAc(b1-4)GlcNAc
# Method in brief: as §1
# [24] = molecular target: Neu5Ac(a2-3)Gal(b1-3)GlcNAc(b1-3)Gal(b1-3)GlcNAc
# Method in brief: as §1
# [25] = molecular target: Neu5Ac(a2-3)Gal(b1-3)GlcNAc(b1-3)Gal(b1-4)GlcNAc
# Method in brief: as §1
# [26] = molecular target: Neu5Ac(a2-3)Gal(b1-3)GlcNAc(b1-3)GalNAc
# Method in brief: as §1
# [27] = molecular target: Neu5Ac(a2-3)Gal(b1-3)GlcNAc(b1-4)Gal(b1-4)Glc
# Method in brief: as §1
# [28] = molecular target: Neu5Ac(a2-3)Gal(b1-3)GlcNAc(b1-6)GalNAc
# Method in brief: as §1
# [29] = molecular target: Neu5Ac(a2-3)Gal(b1-3)GlcNAc6S
# Method in brief: as §1
binder,measurement,setting,value
B1,glycan array binding signal (z-score),Kdn(a2-3)Gal(b1-4)Glc,-0.351
same,glycan array binding signal (z-score),Kdn(a2-3)Gal(b1-4)GlcNAc,-0.423
same,glycan array binding signal (z-score),[1],-0.373
same,glycan array binding signal (z-score),Kdn(a2-6)Gal(b1-4)GlcNAc,-0.222
same,glycan array binding signal (z-score),[2],-0.313
same,glycan array binding signal (z-score),[3],5.38
same,glycan array binding signal (z-score),Man(a1-2)Man(a1-3)Man,-0.28
same,glycan array binding signal (z-score),[4],-0.385
same,glycan array binding signal (z-score),[5],6.69
same,glycan array binding signal (z-score),[6],-0.318
same,glycan array binding signal (z-score),[7],-0.429
same,glycan array binding signal (z-score),[8],0.917
same,glycan array binding signal (z-score),[9],6.34
same,glycan array binding signal (z-score),Man(a1-3)[Man(a1-6)]Man,0.835
same,glycan array binding signal (z-score),[10],-0.128
same,glycan array binding signal (z-score),[11],-0.311
same,glycan array binding signal (z-score),[12],-0.396
same,glycan array binding signal (z-score),[13],-0.358
same,glycan array binding signal (z-score),[14],1.65
same,glycan array binding signal (z-score),Man(a1-6)Man,2.08
same,glycan array binding signal (z-score),Man(b1-4)GlcNAc,0.002
same,glycan array binding signal (z-score),MurNAc(b1-4)GlcNAc,-0.43
same,glycan array binding signal (z-score),Neu5Ac(a2-3)Gal,-0.391
same,glycan array binding signal (z-score),[15],-0.441
same,glycan array binding signal (z-score),[16],-0.418
same,glycan array binding signal (z-score),[17],-0.322
same,glycan array binding signal (z-score),[18],-0.334
same,glycan array binding signal (z-score),[19],-0.091
same,glycan array binding signal (z-score),[20],-0.431
same,glycan array binding signal (z-score),[21],-0.341
same,glycan array binding signal (z-score),[22],0.296
same,glycan array binding signal (z-score),[23],-0.055
same,glycan array binding signal (z-score),[24],-0.307
same,glycan array binding signal (z-score),[25],-0.423
same,glycan array binding signal (z-score),[26],-0.31
same,glycan array binding signal (z-score),[27],-0.093
same,glycan array binding signal (z-score),[28],-0.162
same,glycan array binding signal (z-score),[29],-0.222
